The whole screen tested about 45,000 compounds, of which about 200 (0.44%) were called active. Another 7% or so got no clear call; they are omitted. Calls come from the whole dose curve; as a rule, active = well fitted activation curve with a large enough effect; inconclusive = small, poorly fitted or top-dose-only effect; inactive = no such curve, though single readings can be large or run the other way. The list shows a part of the results.
test: qHTS of TDP-43 Inhibitors: NCGC Sytravon Library Screen; settings: yeast TDP-43 toxicity rescue, BacTiter-Glo growth, 24 h; series mostly up to 46.1 µM; growth rescue (activation): at the top concentration; note: 0% is about no effect; nearly all actives have a fitted effect of over 55% in size
Method in brief: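 TDP-43-expressing yeast, pregrown in raffinose, seeded at OD600 0.02 in galactose medium with compound for 24 hr at 30 deg C. Growth read by BacTiter-Glo luminescence, so rescue of toxicity appears as activation.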

Row | SMILES | growth rescue (activation)
1 | CSCCC(NS(=O)(=O)c1ccc(Cl)cc1)C(=O)OCC(=O)NC1CC1 (centres undefined) | inactive: 24.2%
2 | O=C(O)C/C=C(/NC(=O)OCc1ccccc1)C(=O)OCc1ccccc1 | inactive: 5.47%
3 | COc1cccc(C2c3c(-c4cc(Cl)c(C)cc4O)n[nH]c3C(=O)N2Cc2cccnc2)c1 (centres undefined) | inactive: 1.59%
4 | O=C(CCCn1cc([N+](=O)[O-])cn1)Nc1cccnc1 | inactive: 12.8%
5 | CC(C)(C)NC(=O)C(=O)NN=C1CCCCCCC1 | inactive: 5%
6 | CC(=O)c1cc(-c2ccccc2)n(CCC(=O)NC2CCC(C)CC2)c1C (centres undefined) | inactive: -2.05%
7 | O=c1c2c(n3cnnc3n1-c1ccccc1)-c1ccccc1CC21CCCCC1 | inactive: 17.5%
8 | Cc1cc(OCC(O)CN2CCN(C)CC2)ccc1C(C)C (centres undefined) | inactive: 7.08%
9 | CCOC(=O)c1cccc(NC(=O)CCn2c(=O)oc3ccccc32)c1 | inactive: 16%
10 | COc1ccc(C2=NN(CCC(=O)NCc3ccc4c(c3)OCO4)C(=O)CC2)cc1 | inactive: -6.3%
11 | CCOC(=O)Cc1csc(NC(=O)/C=C/c2ccc(OC)cc2)n1 | inactive: 2.86%
12 | COc1ccc(Cl)cc1C(=O)NNC(=O)CCNS(=O)(=O)c1ccccc1 | inactive: -0.0197%
13 | CCCOC(=O)CCCN1C(=O)/C(=C2\SC(=S)N(CCCC(=O)OCCC)C2=O)SC1=S | inactive: 0.45%
14 | COc1ccccc1CNc1nc(NCc2cccc(OC)c2OC)c2sccc2n1 | inactive: -4.45%
15 | O=c1cc(CN2CCc3ccccc3C2)nc2sccn12 | inactive: -0.831%
16 | COc1cc(C(=O)OCC(=O)NC2CCCCC2)cc(OC)c1OC | inactive: 2.7%
17 | O=S(=O)(NCc1ccccc1)c1ccc(Br)c2nsnc12 | inactive: 24.2%
18 | CC1(C(=O)NS(=O)(=O)c2cccc(C#N)c2)CCN1C(=O)Cc1ccccc1 (centres undefined) | inactive: 9.24%
19 | O=C1CC(C(=O)N2CCCc3ccccc32)CN1c1ccc(Cl)cc1 (centres undefined) | inactive: 28.9%
20 | COc1ccc(C(=O)NCC(=O)N2CCN(C(=O)c3ccco3)CC2)cc1OC | inactive: 0.0591%
21 | CC(=O)NCCc1nc2cc(NC(=O)c3ccc([N+](=O)[O-])cc3)ccc2n1C | inactive: -5.03%
22 | CCCCNC(=O)C1(C)CCN1C(=O)c1ccc(C(F)(F)F)nc1C (centres undefined) | inactive: -1.17%
23 | CCOC(=O)c1c(NC(=O)CSc2cccc[n+]2[O-])sc(C(=O)Nc2ccccc2)c1C | inactive: 14.5%
24 | CCCc1[nH]nc2c1C(c1ccoc1)C(C#N)=C(N)O2 (centres undefined) | inactive: -0.202%
25 | CC(C)(C)c1ccc(NC(=O)Cn2cnc3cc([N+](=O)[O-])ccc3c2=O)cc1 | inactive: 7.37%
26 | N#Cc1nc(COc2ccccc2)oc1NCCN1CCOCC1 | inactive: 18%
27 | O=C(Nc1nc(-c2ccccn2)cs1)c1ncc(Cl)c(Cl)c1Cl | inactive: -78.1%
28 | CCCS(=O)(=O)NC(=O)C1(C)CCN(C(=O)c2cccc3ccccc23)C1 (centres undefined) | inactive: -8.97%
29 | CCOC(=O)C1CN(C(C)(C)C)C(=O)C1=O (centres undefined) | inactive: -21.1%

Reference: PubChem BioAssay AID1347073 (National Center for Advancing Translational Sciences (NCATS), 2019)
